# Laboratory results from the supplement of paper PMC3334620.
# Over roughly 33,000 sequences, “E-score (-0.5 to 0.5)” has its median near -0.041; the highest 2% begin near 0.37. The list shows a part of the results.
# Target: T1, Ecm22 (UniProt Q05958)
# T1 sequence: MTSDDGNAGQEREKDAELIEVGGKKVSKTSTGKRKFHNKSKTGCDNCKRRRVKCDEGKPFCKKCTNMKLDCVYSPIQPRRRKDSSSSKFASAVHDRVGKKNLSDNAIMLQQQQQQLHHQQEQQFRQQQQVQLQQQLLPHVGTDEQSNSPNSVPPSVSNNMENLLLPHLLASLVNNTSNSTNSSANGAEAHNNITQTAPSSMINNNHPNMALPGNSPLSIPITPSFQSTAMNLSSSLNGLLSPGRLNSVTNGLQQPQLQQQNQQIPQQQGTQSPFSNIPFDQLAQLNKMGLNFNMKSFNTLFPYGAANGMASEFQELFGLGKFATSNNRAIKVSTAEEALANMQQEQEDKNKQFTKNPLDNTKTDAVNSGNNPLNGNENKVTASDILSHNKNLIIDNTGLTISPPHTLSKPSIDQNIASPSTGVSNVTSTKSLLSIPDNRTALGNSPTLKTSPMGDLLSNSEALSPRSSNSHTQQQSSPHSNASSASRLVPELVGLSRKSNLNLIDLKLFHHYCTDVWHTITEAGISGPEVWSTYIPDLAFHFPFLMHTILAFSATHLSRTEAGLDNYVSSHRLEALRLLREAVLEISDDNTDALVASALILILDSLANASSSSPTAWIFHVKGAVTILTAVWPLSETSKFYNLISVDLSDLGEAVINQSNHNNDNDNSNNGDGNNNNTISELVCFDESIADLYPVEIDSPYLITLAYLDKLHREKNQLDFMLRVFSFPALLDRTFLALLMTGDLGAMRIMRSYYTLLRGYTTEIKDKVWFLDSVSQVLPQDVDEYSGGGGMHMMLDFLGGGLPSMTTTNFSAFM
# Experiment: PBM E-score (8-mer binding enrichment) (E-score (-0.5 to 0.5)); higher = stronger / more preferred TF binding; most listed sequences are background and not binding sites
# Settings: protein concentration: 200 nM; construct: GST-full length
# Procedure: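 Universal 'all 10-mer' protein binding microarrays (Agilent AMADID 015681) probed with GST-tagged S. cerevisiae TFs (full-length or DBD) made by in vitro transcription/translation (PURExpress), about 100-200 nM. Bound TF was detected with fluorescent anti-GST. Each ungapped 8-mer (which stands for itself and its reverse complement) is scored by the PBM enrichment score (E-score), a modified Wilcoxon-Mann-Whitney statistic from -0.5 to +0.5, computed with the Universal PBM Analysis Suite. Scale: above 0.35 generally sequence-specific binding.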
row,Sequence,PBM E-score
1,GCTCGAAC,0.161
2,ACACTTAC,0.00534
3,AGTCAAGG,-0.27
4,GGCTCCAC,-0.253
5,GCGAGGAA,0.258
6,CTAGAACC,-0.0145
7,ATCCGCAT,0.135
8,GGGCCGAA,-0.133
9,CGATCTCA,-0.0854
10,AAACTTGT,0.0994
11,CGGTTAGA,0.242
12,CCCCGAGG,-0.159
13,AACGCCCG,0.108
14,CATGAAGC,-0.126
15,ACATTGCA,-0.0655
16,ACGTTCTG,0.0273
17,ATGATCAG,0.0682
18,TCGCATCA,0.3
19,GAGTATCA,0.141
20,CAGTAGTA,0.102
21,ATGTGAAA,-0.153
22,ACCACCAA,-0.284

row,Sequence,PBM E-score
1,GCTGTAGA,-0.28
2,CTCAGTGA,-0.182
3,AAGTGCTC,-0.15
4,ACAATTCT,-0.0539
5,CTAACAGC,-0.0675
6,AACGCAGT,0.168
7,ATAGCCGA,0.0868
8,TCGTCCCA,-0.076
9,ATTTGTAA,-0.0415
10,AATATATA,0.177
11,CAGCCCTA,-0.158
12,CATAGACC,-0.0554
13,ATGCTGTA,0.0259
14,GAGTATCC,0.062
15,GGGTTCAC,-0.0635
16,GGGATCTA,-0.0574
17,AGTAATGG,-0.00096
18,ATGGTTGG,-0.0232
19,AGGACCCG,-0.0518
20,ATTTCGTG,0.0706
21,GAACCTTA,-0.2
22,CTTCTACA,-0.0781

row,Sequence,PBM E-score
1,CGCCAACA,-0.0109
2,CTTGTAAA,-0.00071
3,GCAGGGAA,-5e-05
4,AATCGGAA,0.0232
5,AGCTTCCT,-0.0503
6,AAAACCGT,-0.00949
7,GGGGAGGA,-0.197
8,GCGTACCC,0.229
9,ACCTTTAT,-0.179
10,AGGAGACA,-0.0271
11,CTGGGTTC,-0.16
12,GTAAGAGA,0.0595
13,CAATTCGC,0.0698
14,GCATCGGC,-0.101
15,GGCGGAGA,-0.00921
16,GTCTAAGA,-0.0187
17,GTAGGTTA,0.0849
18,GTAATGAC,0.0869
19,CTCTATTC,0.0634
20,GTTTTACA,-0.0364
21,ATCCACGC,-0.0615
22,ACGTGCTA,0.0993

row,Sequence,PBM E-score
1,CACTGCGA,0.073
2,CTTCTCAA,-0.0793
3,CGTAGAGA,0.189
4,CTCGCCGC,-0.0455
5,AACCCGAG,0.267
6,CGATATAC,0.312
7,GGTCCCTA,-0.161
8,ACCGGAGA,0.0128
9,CTGTCGTA,0.453
10,GCCCTCAA,-0.275
11,CCGAAGAC,0.0182
12,CGCGTTGA,0.0778
13,CTCTAGCC,-0.105
14,ATCCAGGC,-0.295
15,GGAAGCCC,-0.0852
16,AAACACTA,0.13
17,GTATACCA,0.15
18,AAAAGGGA,-0.0769
19,CGGCTAAA,0.0996
20,GACGCGTC,0.0262
